# Results as given in the supplement of paper PMC9446081.
# Hit rate of the full screen: of about 39,000 compounds, about 220 (0.56%) showed activity. Some of the results follow.
# System: Escherichia coli K-12 BW25113
# Assay: relative growth (OD600 normalised to plate interquartile mean) (fraction); higher = less growth inhibition, active = 0.2 or less
# Conditions: 50 µM; LB; incubation time: overnight (16-24 h)
# 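Also: static incubation at 37 °C against the wild-type strain, values averaged over two biological replicates.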
row,SMILES,relative growth
1,C[C@@H]1CN([C@@H](C)CO)S(=O)(=O)c2ccc(C#CCN(C)C)cc2O[C@H]1CN(C)C(=O)Nc1ccccc1F,inactive: 0.982
2,COc1ccccc1S(=O)(=O)N(C)C[C@H]1OCc2cn(nn2)CCCC(=O)N([C@@H](C)CO)C[C@@H]1C,inactive: 0.986
3,CCOC(=O)[C@@H]1[C@H](Cc2ccccc2)[C@H]2c3cc(OC)c(OC)cc3CCN2C(=O)N1c1ccc(OC)cc1,inactive: 1.02
4,Cn1cnc(S(=O)(=O)N2C[C@H](O)COC[C@H]3O[C@@H](CC(=O)NC4CCCC4)CC[C@@H]32)c1,inactive: 1.03
5,OC[C@H]1O[C@@](CO)(O[C@@H]2O[C@H](CO)[C@@H](O)[C@H](O)[C@H]2O)[C@@H](O[C@@H]2O[C@H](CO)[C@@H](O)[C@H](O)[C@H]2O)[C@@H]1O,inactive: 1
6,CCCNC(=O)N1C[C@@H]2[C@H](c3ccccc31)[C@H](CO)N2C(=O)CN1CCOCC1,inactive: 1.02
7,O=C(CO)c1ccccc1,inactive: 1.04
8,COc1ccc(NC(=O)Nc2ccc3c(c2)CC(=O)N([C@H](C)CO)C[C@@H](C)[C@H](CN(C)Cc2ccc(C(=O)Nc4ccccc4N)cc2)O3)cc1,inactive: 1.02
9,CNC[C@H]1OCCCC[C@H](C)Oc2ccc(NS(=O)(=O)c3c(C)noc3C)cc2C(=O)N([C@H](C)CO)C[C@@H]1C,inactive: 1.02
10,Cn1cnc(S(=O)(=O)N2C[C@H](O)COC[C@H]3O[C@@H](CC(=O)NCc4cccc(F)c4)CC[C@@H]32)c1,inactive: 0.984
11,C[C@H]1CN([C@@H](C)CO)C(=O)c2cc(NC(=O)Nc3ccc(C(F)(F)F)cc3)ccc2O[C@H]1CN(C)S(=O)(=O)c1ccc(F)cc1,inactive: 1.04
12,c1cncc(OCc2nnn3c2CNCCC3)c1,inactive: 1
13,C[C@H](CO)N1C[C@H](C)[C@H](CN(C)C(=O)Nc2ccc(C(F)(F)F)cc2)Oc2ccc(NC(=O)Nc3ccc(F)cc3)cc2CC1=O,inactive: 1.02
14,C[C@H](CO)N1C[C@H](C)[C@@H](CN(C)Cc2cccc(F)c2)Oc2cc(C#CC3CC3)ccc2S1(=O)=O,inactive: 1.04
15,Cc1ccc(S(=O)(=O)N(C)C[C@H]2Oc3ccc(N(C)C)cc3CC(=O)N([C@@H](C)CO)C[C@@H]2C)cc1,inactive: 0.998
16,C[C@@H]1CN([C@H](C)CO)S(=O)(=O)c2ccc(C#Cc3ccncc3)cc2O[C@@H]1CN(C)C(=O)C1CCOCC1,inactive: 1
17,COc1ccc(S(=O)(=O)Nc2ccc3c(c2)CC(=O)N([C@@H](C)CO)C[C@@H](C)[C@H](CN(C)C(=O)Nc2c(C)noc2C)O3)cc1,inactive: 0.993
18,C[C@H]1CN([C@@H](C)CO)C(=O)Cc2cc(NC(=O)Nc3cccc4ccccc34)ccc2O[C@H]1CN(C)Cc1ccc(-c2ccccc2)cc1,inactive: 0.973
19,Nc1nnc(CC(=O)O)[nH]1,inactive: 1.03
20,CCOC(=O)[C@H]1C/C=C/C[C@H](C(=O)OCC)C(=O)O[C@H]2[C@@H](OC)O[C@H](CO)[C@@H](OC(=O)Nc3ccc(Br)cc3)[C@@H]2OC1=O,inactive: 1.02

row,SMILES,relative growth
1,COc1ccc(S(=O)(=O)Nc2cccc3c2O[C@H](CN(C)Cc2ccc(Oc4ccccc4)cc2)[C@@H](C)CN([C@@H](C)CO)C3=O)cc1,inactive: 1.02
2,C[C@H](CO)N1C[C@H](C)[C@@H](CN(C)Cc2ccc(Cl)c(Cl)c2)OCCCC[C@H](C)Oc2ccc(NS(C)(=O)=O)cc2C1=O,inactive: 1.01
3,COCC#Cc1ccc([C@@H]2[C@H]3CN(C(=O)C4CCOCC4)CC(=O)N3[C@H]2CO)cc1,inactive: 0.926
4,CC(C)N1C[C@H](C)[C@@H](CN(C)Cc2ccc(Oc3ccccc3)cc2)Oc2c(NC(=O)C3CCN(C)CC3)cccc2C1=O,inactive: 0.958
5,COc1cccc(-c2cn(CC[C@@H]3CC[C@H](NC(=O)CN(C)C)[C@@H](CO)O3)nn2)c1,inactive: 0.994
6,Cc1ccc(O)c(C(C)(C)C)c1,inactive: 0.97
7,Cc1cccc(=O)n1CCCCN,inactive: 1.02
8,COc1ccc(S(=O)(=O)N(C)C[C@H]2Oc3ccc(NC(=O)CCC(F)(F)F)cc3CC(=O)N([C@H](C)CO)C[C@H]2C)cc1,inactive: 1.03
9,CC(C)CC#Cc1cnc2c(c1)C(=O)N([C@@H](C)CO)C[C@@H](C)[C@H](CN(C)S(=O)(=O)c1ccccc1)O2,inactive: 1.02
10,C[C@H](CO)N1C[C@H](C)[C@@H](CN(C)C(=O)c2cccnc2)Oc2cc(C#CC3(O)CCCC3)ccc2S1(=O)=O,inactive: 0.994
11,COc1cccc(NC(=O)N(C)C[C@H]2Oc3cc(C#Cc4ccncc4)ccc3S(=O)(=O)N([C@@H](C)CO)C[C@@H]2C)c1,inactive: 1.02
12,O=C(C[C@@H]1C[C@@H]2c3cc(NS(=O)(=O)c4ccc(F)cc4)ccc3O[C@@H]2[C@@H](CO)O1)NCCc1ccccc1,inactive: 1.03
13,C[C@H]1CN([C@@H](C)CO)C(=O)c2c(c3ccccc3n2C)-c2ccccc2CO[C@H]1CN(C)S(C)(=O)=O,inactive: 0.986
14,C[C@H](CO)N1C[C@H](C)[C@H](CN(C)Cc2ccc3c(c2)OCO3)Oc2ccc(NS(=O)(=O)c3cn(C)cn3)cc2CC1=O,inactive: 1.01
15,NS(=O)(=O)c1ccc(NC(=O)[C@H]2CCCNC2=O)cc1,inactive: 1.04
16,CNCC(O)C(O)C(O)C(O)CO (stereo not given),inactive: 1.07
17,C[C@H]1CN([C@@H](C)CO)C(=O)Cc2cc(NS(=O)(=O)c3cn(C)cn3)ccc2O[C@@H]1CN(C)C(=O)Nc1ccc2c(c1)OCO2,inactive: 1.02
18,COc1ccc(S(=O)(=O)N(C)C[C@@H]2Oc3ccc(NC(=O)CCN4CCOCC4)cc3C(=O)N([C@H](C)CO)C[C@@H]2C)cc1,inactive: 1.02
19,C[C@@H]1CN([C@H](C)CO)C(=O)Cc2cc(NS(=O)(=O)c3ccccc3)ccc2O[C@@H]1CN(C)Cc1ccc(Cl)c(Cl)c1,inactive: 0.997
20,CC(C)CC#Cc1ccc2c(c1)O[C@@H](CN(C)C(=O)c1ccccn1)[C@@H](C)CN([C@@H](C)CO)S2(=O)=O,inactive: 0.985
